Assay results reported in the supplement of paper PMC12423691.
The other results are listed elsewhere or left out. Binding of human transcription factors and regulators to the viral nucleoprotein by AlphaScreen, crude cell-free proteins, amounts not normalised, one pass. Fold of the Venus control; higher = more signal. No active / inactive call. Single-pass screen; sequences are the whole Swiss-Prot entries looked up by name.

B1: ZNF281, Q9Y2X9 (protein)
chain: MKIGSGFLSGGGGTGSSGGSGSGGGGSGGGGGGGSSGRRAEMEPTFPQGMVMFNHRLPPVTSFTRPAGSAAPPPQCVLSSSTSAAPAAEPPPPPAPDMTFKKEPAASAAAFPSQRTSWGFLQSLVSIKQEKPADPEEQQSHHHHHHHHYGGLFAGAEERSPGLGGGEGGSHGVIQDLSILHQHVQQQPAQHHRDVLLSSSSRTDDHHGTEEPKQDTNVKKAKRPKPESQGIKAKRKPSASSKPSLVGDGEGAILSPSQKPHICDHCSAAFRSSYHLRRHVLIHTGERPFQCSQCSMGFIQKYLLQRHEKIHSREKPFGCDQCSMKFIQKYHMERHKRTHSGEKPYKCDTCQQYFSRTDRLLKHRRTCGEVIVKGATSAEPGSSNHTNMGNLAVLSQGNTSSSRRKTKSKSIAIENKEQKTGKTNESQISNNINMQSYSVEMPTVSSSGGIIGTGIDELQKRVPKLIFKKGSRKNTDKNYLNFVSPLPDIVGQKSLSGKPSGSLGIVSNNSVETIGLLQSTSGKQGQISSNYDDAMQFSKKRRYLPTASSNSAFSINVGHMVSQQSVIQSAGVSVLDNEAPLSLIDSSALNAEIKSCHDKSGIPDEVLQSILDQYSNKSESQKEDPFNIAEPRVDLHTSGEHSELVQEENLSPGTQTPSNDKASMLQEYSKYLQQAFEKSTNASFTLGHGFQFVSLSSPLHNHTLFPEKQIYTTSPLECGFGQSVTSVLPSSLPKPPFGMLFGSQPGLYLSALDATHQQLTPSQELDDLIDSQKNLETSSAFQSSSQKLTSQKEQKNLESSTGFQIPSQELASQIDPQKDIEPRTTYQIENFAQAFGSQFKSGSRVPMTFITNSNGEVDHRVRTSVSDFSGYTNMMSDVSEPCSTRVKTPTSQSYR
B2: ESR1, P03372 (protein)
chain: MTMTLHTKASGMALLHQIQGNELEPLNRPQLKIPLERPLGEVYLDSSKPAVYNYPEGAAYEFNAAAAANAQVYGQTGLPYGPGSEAAAFGSNGLGGFPPLNSVSPSPLMLLHPPPQLSPFLQPHGQQVPYYLENEPSGYTVREAGPPAFYRPNSDNRRQGGRERLASTNDKGSMAMESAKETRYCAVCNDYASGYHYGVWSCEGCKAFFKRSIQGHNDYMCPATNQCTIDKNRRKSCQACRLRKCYEVGMMKGGIRKDRRGGRMLKHKRQRDDGEGRGEVGSAGDMRAANLWPSPLMIKRSKKNSLALSLTADQMVSALLDAEPPILYSEYDPTRPFSEASMMGLLTNLADRELVHMINWAKRVPGFVDLTLHDQVHLLECAWLEILMIGLVWRSMEHPGKLLFAPNLLLDRNQGKCVEGMVEIFDMLLATSSRFRMMNLQGEEFVCLKSIILLNSGVYTFLSSTLKSLEEKDHIHRVLDKITDTLIHLMAKAGLTLQQQHQRLAQLLLILSHIRHMSNKGMEHLYSMKCKNVVPLYDLLLEMLDAHRLHAPTSRGGASVEETDQSHLATAGSTSSHSLQKYYITGEAEGFPATV
B3: STAT5B, P51692 (protein)
chain: MAVWIQAQQLQGEALHQMQALYGQHFPIEVRHYLSQWIESQAWDSVDLDNPQENIKATQLLEGLVQELQKKAEHQVGEDGFLLKIKLGHYATQLQNTYDRCPMELVRCIRHILYNEQRLVREANNGSSPAGSLADAMSQKHLQINQTFEELRLVTQDTENELKKLQQTQEYFIIQYQESLRIQAQFGPLAQLSPQERLSRETALQQKQVSLEAWLQREAQTLQQYRVELAEKHQKTLQLLRKQQTIILDDELIQWKRRQQLAGNGGPPEGSLDVLQSWCEKLAEIIWQNRQQIRRAEHLCQQLPIPGPVEEMLAEVNATITDIISALVTSTFIIEKQPPQVLKTQTKFAATVRLLVGGKLNVHMNPPQVKATIISEQQAKSLLKNENTRNDYSGEILNNCCVMEYHQATGTLSAHFRNMSLKRIKRSDRRGAESVTEEKFTILFESQFSVGGNELVFQVKTLSLPVVVIVHGSQDNNATATVLWDNAFAEPGRVPFAVPDKVLWPQLCEALNMKFKAEVQSNRGLTKENLVFLAQKLFNNSSSHLEDYSGLSVSWSQFNRENLPGRNYTFWQWFDGVMEVLKKHLKPHWNDGAILGFVNKQQAHDLLINKPDGTFLLRFSDSEIGGITIAWKFDSQERMFWNLMPFTTRDFSIRSLADRLGDLNYLIYVFPDRPKDEVYSKYYTPVPCESATAKAVDGYVKPQIKQVVPEFVNASADAGGGSATYMDQAPSPAVCPQAHYNMYPQNPDSVLDTDGDFDLEDTMDVARRVEELLGRPMDSQWIPHAQS
B4: BEX1, Q9HBH7 (protein)
chain: MESKEKRAVNSLSMENANQENEEKEQVANKGEPLALPLDAGEYCVPRGNRRRFRVRQPILQYRWDMMHRLGEPQARMREENMERIGEEVRQLMEKLREKQLSHSLRAVSTDPPHHDHHDEFCLMP
B5: ETV3, P41162 (protein)
chain: MKAGCSIVEKPEGGGGYQFPDWAYKTESSPGSRQIQLWHFILELLQKEEFRHVIAWQQGEYGEFVIKDPDEVARLWGRRKCKPQMNYDKLSRALRYYYNKRILHKTKGKRFTYKFNFNKLVMPNYPFINIRSSGVVPQSAPPVPTASSRFHFPPLDTHSPTNDVQPGRFSASSLTASGQESSNGTDRKTELSELEDGSAADWRRGVDPVSSRNAIGGGGIGHQKRKPDIMLPLFARPGMYPDPHSPFAVSPIPGRGGVLNVPISPALSLTPTIFSYSPSPGLSPFTSSSCFSFNPEEMKHYLHSQACSVFNYHLSPRTFPRYPGLMVPPLQCQMHPEESTQFSIKLQPPPVGRKNRERVESSEESAPVTTPTMASIPPRIKVEPASEKDPESLRQSAREKEEHTQEEGTVPSRTIEEEKGTIFARPAAPPIWPSVPISTPSGEPLEVTEDSEDRPGKEPSAPEKKEDALMPPKLRLKRRWNDDPEARELSKSGKFLWNGSGPQGLATAAADA
B6: GLMP, Q8WWB7 (protein)
chain: MRGSVECTWGWGHCAPSPLLLWTLLLFAAPFGLLGEKTRQVSLEVIPNWLGPLQNLLHIRAVGTNSTLHYVWSSLGPLAVVMVATNTPHSTLSVNWSLLLSPEPDGGLMVLPKDSIQFSSALVFTRLLEFDSTNVSDTAAKPLGRPYPPYSLADFSWNNITDSLDPATLSATFQGHPMNDPTRTFANGSLAFRVQAFSRSSRPAQPPRLLHTADTCQLEVALIGASPRGNRSLFGLEVATLGQGPDCPSMQEQHSIDDEYAPAVFQLDQLLWGSLPSGFAQWRPVAYSQKPGGRESALPCQASPLHPALAYSLPQSPIVRAFFGSQNNFCAFNLTFGASTGPGYWDQHYLSWSMLLGVGFPPVDGLSPLVLGIMAVALGAPGLMLLGGGLVLLLHHKKYSEYQSIN

target: nucleoprotein N of Crimean-Congo hemorrhagic fever virus; test: AlphaScreen luminescence signal relative to Venus negative control (fold); higher = stronger binding to CCHFV N
Experimental: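 AlphaScreen binding of cell-free made, FLAG-GST-tagged human transcription factors and regulators (crude translation products) to biotinylated N protein; signal as fold of the FLAG-GST-Venus control. One pass.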

Binder | AlphaScreen luminescence signal
B1 | 2.47
B2 | 3.12
B3 | 2.14
B4 | 4.05
B5 | 1.77
B6 | 2.93
